According to the RNAGym collection of RNA variant scans (doi:10.1101/gad.245936.114):
Variants at the floor of the assay are shown more often than the library holds them.

B1: tRNA (parent)
chain: CUCUCGGUAGCCAAGUUGGUUUAAGGCGCAAGACUUUAAUUUAUCACUACGAAAUCUUGAGAUCGGGCGUUCGACUCGCCCCCGGGAGAUUUUUUCCUCGAGCAA

Variants of: B1
Assay: nonsense suppression (GFP-seq) (ratio to wild type); higher = more function; SUP4oc tRNA, yeast GFP reporter sort-seq
Procedure, shortened: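 To measure nonsense suppression, tRNA variants from a library carrying ~3% random mutations were integrated into the yeast genome alongside RFP and a GFP ochre reporter under galactose control. Growth took place in raffinose/galactose medium supplemented with 80 mg/L adenine, followed by sorting into GFP/RFP bins and Illumina sequencing of each bin (phred ≥30). For each variant with ≥100 reads and ≥30 cells, the bin median GFP/RFP values were weighted by its estimated cell share per bin and referenced to the unmutated parent tRNA.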

Nonsense suppression, 0.0481:
C34U G61C

Nonsense suppression, 0.0378:
U35C G61A

Nonsense suppression, 0.276:
C34G U55C

Nonsense suppression, ≤ 0.026:
C34A U58G
C34A U63C
C34A U63G
C34A U76A
C34G A54C
C34G A54G C79A
C34G A54G G61C
C34G A54U
C34G A60C
C34G A60G
C34G A60U
C34G A62C U63C
C34G A74C G86A
C34G A74U
C34G A89C
C34G A89U
C34G C56A
C34G C56U
C34G C56U C81G
C34G C56U G69C
C34G C64A U76G
C34G C68A G88U
C34G C79A
C34G C80U
C34G C81A
C34G C82A
C34G C82U
C34G G59U A60C G66U
C34G G61C
C34G G61C C83G
C34G G65C G67A
C34G G66C
C34G G67C A87G
C34G G67U
C34G G69A
C34G G69C
C34G G73C G88C
C34G G73U C75U C77A
C34G G78C G85A
C34G G84C
C34G G84U
C34G U55A U57G
C34G U55C G59C
C34G U55G
C34G U55G G88C
C34G U57A A60C
C34G U57C
C34G U58C
C34G U63A G65U G84C
C34G U63A G69U
C34G U63C
C34G U63G C64U U70G C79G
C34G U70A G78U
C34G U71A C80U
C34G U76A
C34U A54C G73C U76G
C34U A54G U63G
C34U A60C G66C
C34U A62C
C34U A62C C81U
C34U A62C G73U
C34U A62G
C34U A62U
C34U A87G
C34U A87U
C34U A87U G88A
C34U C56A G61C
C34U C56U
C34U C64U
C34U C68G U70A A89G
C34U C75A
C34U C77G C79G A89G
C34U C79A
C34U C82G
C34U G59C G85C
C34U G61U
C34U G65U
C34U G66A
C34U G66C
C34U G66C C81A G86C A89U
C34U G66U
C34U G67A C68U G78A
C34U G67A C72G
C34U G67C C80A
C34U G73U C79G
C34U G78C
C34U G84C
C34U G86C
C34U U35G U57C G61A C82U
C34U U55C
C34U U55G C56A C75G C81A
C34U U57A G73A
C34U U58A
C34U U58G
C34U U63A
C34U U63C C77G
C34U U63C G88C
C34U U63G
C34U U70A
C34U U70G
U35A
U35A A54U G85U
U35A A60C
U35A A62C G88C
U35A A74C
U35A A74G G78C
U35A C64U
U35A C68G
U35A C68U
U35A C72G
U35A C77U
U35A C79A
U35A C79U
U35A C81A
U35A G59A G67A
U35A G61C G66C C72G G85C
U35A G65C G85C
U35A G66A
U35A G73U G84C
U35A G78C
U35A G85A
U35A G88A
U35A U55A G88A
U35A U57G
U35A U57G C81U G85C A87U
U35A U70C
U35A U71C
U35C
U35C A62C C77A
U35C C56A
U35C C77A
U35C G65A
U35C G73C
U35C G84A
U35C G85U
U35C G86A A89C
U35C G88A
U35C U57C C80A
U35C U63A A89C
U35C U70A
U35C U70A G78A
U35G
U35G A54C G65C
U35G A89G
U35G A89U
U35G C56G
U35G C56G G59A
U35G C64G
U35G C64G A74G
U35G C68A
U35G C68G
U35G C68G C82U
U35G C68U
U35G C75U
U35G C77G
U35G C82G
U35G C83U
U35G G59A G61U G88C
U35G G59A U63G C82A
U35G G59A U71C
U35G G61A
U35G G61C
U35G G65C
U35G G66A U71A
